{"source": "PubChem BioAssay AID760", "about": "(NMMLSC, 2007)", "note": "Out of some 190,000 compounds screened, about 360 (0.19%) were called active. This list was built around the results that the source calls inconclusive (neither active nor inactive); the mix of calls is not that of the screen.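 Rule for the calls: active = GTP binding activity at least 20 points away from 100%, either lowered or raised; inconclusive = signal likely due to the compound's own green fluorescence; inactive = the rest.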"}
{"target": "Ras-related protein Rab-2A (Canis lupus familiaris) (UniProt P61105)", "test": "Rab2 wt fluorescent GTP binding changes, either direction – biochemical, dog, bead-based flow cytometry, multiplex, primary screen (AID 760);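 note: 0% = beads with excess unlabeled GTP and 100% = no-compound control corrected for plate trend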", "settings": "GST-Rab2 wt beads, Bodipy-GTP binding, at 10 µM"}
{"smiles": "CC(=O)N1CCc2cc(S(=O)(=O)NC3CCCc4ccccc43)ccc21", "note": "(stereo unspecified)", "GTP binding activity": "inconclusive: 97%"}
{"smiles": "COc1ccccc1CNc1nc(S(=O)(=O)c2ccccc2)c(Cl)s1", "GTP binding activity": "inconclusive: 99%"}
{"smiles": "Cc1ccc(/C([O-])=C(/C(=S)NCc2ccccc2)[n+]2cccc(CO)c2)cc1[N+](=O)[O-]", "GTP binding activity": "inconclusive: 92%"}
{"smiles": "CN(CCc1cn[nH]c1)Cc1nc(C(c2ccccc2)c2ccccc2)no1", "GTP binding activity": "inconclusive: 95%"}
{"smiles": "COc1cc(C(=O)Nc2ccncc2)cc(OC)c1OC", "GTP binding activity": "inconclusive: 103%"}
{"smiles": "O=C(O)CSC(NC(=O)c1cccnc1)(C(F)(F)F)C(F)(F)F", "GTP binding activity": "inconclusive: 100%"}
{"smiles": "CCN(CC(=O)Nc1cccc(C(C)=O)c1)S(=O)(=O)c1ccccc1", "GTP binding activity": "inactive: 97%"}
{"smiles": "S=C(N/N=C/c1ccc2ncccc2c1)Nc1ccccc1", "GTP binding activity": "inconclusive: 95%"}
{"smiles": "CCC/C=N/NC(=O)c1cccc(Br)c1", "GTP binding activity": "inactive: 102%"}
{"smiles": "Cn1cnnc1SCC(=O)Nc1nc(-c2ccc(F)cc2)cs1", "GTP binding activity": "inconclusive: 90%"}
{"smiles": "COc1ccc(C(=O)CN2CCN(c3ccc(F)cc3)CC2)cc1OC", "GTP binding activity": "inconclusive: 106%"}
{"smiles": "Cn1cc(/C=C2\\SC(=S)N(NC(=O)c3ccccc3Cl)C2=O)c2ccccc21", "GTP binding activity": "inconclusive: 92%"}
{"smiles": "Cc1ccc(NC(=O)C(=O)c2c(-c3ccccc3)cc3ccccn23)cc1S(=O)(=O)N1CCOCC1", "GTP binding activity": "inconclusive: 87%"}
{"smiles": "O=C(CC(C(=O)O)c1c[nH]c2ccccc12)c1ccccc1", "note": "(stereo unspecified)", "GTP binding activity": "inconclusive: 94%"}
{"smiles": "C=C(C)c1cccc(C(C)(C)NC(=O)N2CCC(C(N)=O)CC2)c1", "GTP binding activity": "inactive: 96%"}
{"smiles": "CCn1cc(C(=O)OCC(=O)c2cc(C)n(-c3ccc(OC(F)F)cc3)c2C)c(=O)c2ccc(C)nc21", "GTP binding activity": "active: 76%"}
{"smiles": "Cc1cccc(OCC(=O)OC2CCN(C)CC2)c1", "GTP binding activity": "inconclusive: 103%"}
{"smiles": "Clc1ccc(-c2csc(N3CCN(c4ccccc4)CC3)n2)cc1", "GTP binding activity": "inconclusive: 87%"}
{"smiles": "CN(C)/C=C1\\C(=O)N(c2ccc(Cl)cc2)CS1(=O)=O", "GTP binding activity": "inconclusive: 104%"}
{"smiles": "COc1ccc(-n2cnc3ccccc32)cc1", "GTP binding activity": "inconclusive: 105%"}
{"smiles": "CCOC(=O)C1=NN(C(=O)COc2ccccc2)C(O)(c2ccc(Br)cc2)C1", "note": "(stereo unspecified)", "GTP binding activity": "inconclusive: 94%"}
{"smiles": "Cc1ccc(S(=O)(=O)/N=C2/C=C(Sc3ncn[nH]3)C(=O)c3ccccc32)c(C)c1", "GTP binding activity": "inconclusive: 90%"}
{"smiles": "CCOc1ncccc1C(=O)Nc1ccc(OC)c(S(=O)(=O)N2CCCCC2)c1", "GTP binding activity": "inconclusive: 92%"}
{"smiles": "O=C(Cn1nnc2ccccc21)c1cccc([N+](=O)[O-])c1", "GTP binding activity": "inconclusive: 107%"}
{"smiles": "CC(=O)C1=C(C)NC2(O)c3ccccc3C(=O)C12O", "note": "(stereo unspecified)", "GTP binding activity": "inconclusive: 92%"}
{"smiles": "Fc1ccccc1Cc1ccc(Cl)nn1", "GTP binding activity": "inactive: 96%"}
{"smiles": "COc1ccccc1CNc1n[nH]c(NCc2ccccc2OC)n1", "GTP binding activity": "inconclusive: 104%"}
{"smiles": "CS(=O)(=O)N1CCC(C(=O)Nc2cccc(Cl)c2)CC1", "GTP binding activity": "inconclusive: 93%"}
{"smiles": "CC(OC(=O)CCc1nc2ccccc2[nH]c1=O)c1ccccc1", "note": "(stereo unspecified)", "GTP binding activity": "inactive: 96%"}
{"smiles": "O=C(CCc1ccccc1)NCCc1cccs1", "GTP binding activity": "inactive: 100%"}
{"smiles": "Clc1cccc(NCc2cn3cccnc3n2)c1", "GTP binding activity": "inactive: 103%"}
{"smiles": "c1csc(-c2ccnc3ncnn23)c1", "GTP binding activity": "inconclusive: 91%"}
{"smiles": "COC(=O)c1cn(-c2ccc(Cl)cc2)c(=O)c2ccccc12", "GTP binding activity": "inactive: 101%"}
{"smiles": "CC(Sc1ccsc1[N+](=O)[O-])C(=O)N1CCN(c2ccccn2)CC1", "note": "(stereo unspecified)", "GTP binding activity": "inconclusive: 92%"}
{"smiles": "Cc1[nH]c2ccccc2c1/C=C/C(=O)c1ccccc1", "GTP binding activity": "inconclusive: 128%"}
{"smiles": "Cc1cc(N2CCN(C(=O)c3ccco3)CC2)n2nc(-c3cccc(F)c3)cc2n1", "GTP binding activity": "inconclusive: 97%"}
{"smiles": "NS(=O)(=O)c1ccc(CNC(=O)C23CC4CC(CC(C4)C2)C3)cc1", "GTP binding activity": "inconclusive: 103%"}
{"smiles": "CCC(c1nnnn1Cc1ccco1)N1CCN(c2cc(Cl)ccc2C)CC1", "note": "(stereo unspecified)", "GTP binding activity": "inactive: 103%"}
{"smiles": "Cc1ccc(-n2nnc(-c3cc4ccccc4nc3Cl)n2)cc1", "GTP binding activity": "inconclusive: 90%"}
{"smiles": "COc1ccc(Br)cc1CNC(=O)C1CCN(S(=O)(=O)N2CCC(C)CC2)CC1", "GTP binding activity": "inactive: 101%"}
{"smiles": "Nc1nnc(-c2cc3c(ccc4ccccc43)oc2=O)s1", "GTP binding activity": "inconclusive: 83%"}
{"smiles": "COc1ccc(Cc2nnc(NC(=O)c3ccco3)s2)cc1", "GTP binding activity": "inconclusive: 101%"}
{"smiles": "CC(C)OCCCn1c(=NC(=O)c2ccncc2)c(C#N)cc2c(=O)n3ccccc3nc21", "GTP binding activity": "inconclusive: 269%"}
{"smiles": "Oc1c(C(c2ccccn2)N2CCOCC2)ccc2cccnc12", "note": "(stereo unspecified)", "GTP binding activity": "inconclusive: 248%"}
{"smiles": "CCOC(=O)CN1C(=O)C(O)=C(C(C)=O)C1c1ccc(F)cc1", "note": "(stereo unspecified)", "GTP binding activity": "inconclusive: 100%"}
{"smiles": "C/C(N)=C(/C#N)C(=O)COC(=O)c1ccccc1O", "GTP binding activity": "inconclusive: 101%"}
{"smiles": "O=C(C1CCCN(S(=O)(=O)c2cccc3nonc23)C1)N1CCC(Cc2ccccc2)CC1", "note": "(stereo unspecified)", "GTP binding activity": "inactive: 101%"}
{"smiles": "COC(=O)CNC(c1ccccc1Cl)c1cc(Br)ccc1NC(=O)CCN1CCOCC1", "note": "(stereo unspecified)", "GTP binding activity": "inconclusive: 104%"}
{"smiles": "Cc1ccccc1C(=O)N1CCN(c2ccc(NC(=O)c3ccccc3[N+](=O)[O-])cc2)CC1", "GTP binding activity": "inactive: 96%"}
{"smiles": "O=c1c2ccccc2nnn1COc1ccc(F)cc1Cl", "GTP binding activity": "inconclusive: 85%"}
{"smiles": "COC(=O)N/N=C(\\C)c1cccc(C(F)(F)F)c1", "GTP binding activity": "inconclusive: 94%"}
{"smiles": "Cc1ccccc1Cc1ccc(Cl)nn1", "GTP binding activity": "inactive: 98%"}
{"smiles": "O=C(OCC(=O)c1ccc(Cl)cc1Cl)c1ccc2c(c1)C(=O)N(c1cccc3ncccc13)C2=O", "GTP binding activity": "inconclusive: 82%"}
{"smiles": "Cc1cc(C)cc(-n2ccnc2SCC(=O)O)c1", "GTP binding activity": "inactive: 94%"}
{"smiles": "CC(C)=C1C2CCC1C1C(=O)N(c3nc(-c4ccc(C(C)C)cc4)c(C)s3)C(=O)C21", "note": "(stereo unspecified)", "GTP binding activity": "inactive: 96%"}
{"smiles": "Cc1cc(=O)n2ncnc2n1COCCO", "GTP binding activity": "inactive: 104%"}
{"smiles": "O=C(COc1ccc2ccccc2c1)NCCc1ccc2c(c1)OCCO2", "GTP binding activity": "inconclusive: 84%"}
{"smiles": "O=C(O)c1ccc(CSc2nnc(Cc3ccccc3)o2)cc1", "GTP binding activity": "inconclusive: 94%"}
{"smiles": "CC(C)(C#CC(O)(c1ccccc1)c1ccccc1)N1CCCC1", "GTP binding activity": "inactive: 95%"}
{"smiles": "COCCCn1c(=S)[nH]c2c(sc3ccccc32)c1=O", "GTP binding activity": "inactive: 96%"}
{"smiles": "C/C(N)=C(/C#N)C(=O)CSc1nc2ccccc2n1CC(C)C", "GTP binding activity": "inactive: 102%"}
